# According to article PMC5836133:
# This is one part of the list. At the low end of the ranking, values are background and their order means little.
# System: T1, GST-NbGlk1(82-244)
# T1 sequence: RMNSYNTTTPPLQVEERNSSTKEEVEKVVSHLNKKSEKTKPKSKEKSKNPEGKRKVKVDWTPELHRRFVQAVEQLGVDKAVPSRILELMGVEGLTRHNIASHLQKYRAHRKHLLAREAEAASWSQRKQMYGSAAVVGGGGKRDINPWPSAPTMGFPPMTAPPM
# Assay: protein-binding microarray;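 further: rank-based score ranging −0.5 to +0.5 with E above 0.45 taken as significant binding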
# Conditions: NbGlk1 is a Golden2-like transcription factor of Nicotiana benthamiana; high values mean tight binding; most listed sequences are background and not binding sites; double strand, one strand shown
row,Sequence,binding signal [E-score]
1,CAAGTCAG,-0.139
2,AGTCGGGA,0.0164
3,ACGGTCAA,-0.0424
4,AGGTTGTC,-0.273
5,AAATTCTG,0.235
6,ACTCCCTA,-0.0758
7,CAATTGAG,0.0551
8,AAAGTCAA,-0.0347
9,AACACATG,-0.134
10,ACCAATAC,-0.0366
11,CAGAAAGA,0.0913
12,AGCCTAAA,-0.11
13,ATGGACTC,-0.26
14,AAGGCATC,-0.19
15,ATCCGTAG,0.0912
16,AAGGCGTC,-0.253
17,ACTCGTCA,-0.162
18,AGTAGGTA,-0.00443
19,AGTCAAGC,-0.192
20,ATGTTGTG,0.116
21,CAGACGAC,-0.227
22,AAGCTGCG,-0.133
23,ACACCACG,-0.0144
24,AAACTAAC,0.0376
25,ATGACAGG,-0.173

row,Sequence,binding signal [E-score]
1,ATTGAGTC,0.0227
2,AACATAGC,-0.0455
3,CAGCCCTG,-0.242
4,AGCGTAGG,-0.221
5,AAAGCCCT,-0.213
6,ACCGTCTG,-0.243
7,AGGAGGGA,-0.175
8,ATCTCATA,0.291
9,ATGAAGAA,0.14
10,AAGTTCTA,-0.0359
11,AAACGCAA,0.248
12,ACTCGTAG,-0.0217
13,ACGGCACT,-0.15
14,AAAGTAGT,0.00278
15,CAGAACTG,0.119
16,AGTGCACA,-0.0902
17,CAATACGG,-0.00433
18,ACGTATCG,0.223
19,ATTGCTTG,0.145
20,AAGGTATA,-0.0471
21,ATGTCCAG,-0.104
22,AGTACGCG,-0.0852
23,CAGATCAG,0.0747
24,CACCTTGG,-0.224
25,ATTGCGGA,0.359

row,Sequence,binding signal [E-score]
1,CAATATTG,0.179
2,AAGGGGGG,-0.217
3,ATTAATTC,0.0712
4,ATTTTACG,0.213
5,AGGCACTC,-0.319
6,AATCGCAA,0.359
7,AACTCCCG,-0.0679
8,AAGGAGTA,-0.078
9,AAGAAGAC,-0.14
10,CAAACAGG,-0.0305
11,AATGGGGC,-0.137
12,CACGACGA,-0.143
13,AAAACGCC,-0.205
14,AGAGGAAA,-0.0222
15,AATCCTCC,0.375
16,ATCTAATG,0.243
17,ACCTTGTC,-0.18
18,CACGCGGG,-0.264
19,ACTAGAAC,-0.00464
20,AGACCAAG,-0.166
21,AATCCATT,0.38
22,CACGGAAA,0.0439
23,AAGAAGAT,0.293
24,AAAACAGC,0.0536
25,AGGGTACG,-0.119

row,Sequence,binding signal [E-score]
1,AGGCGGAA,-0.112
2,ACATATAT,0.237
3,AGTATGAA,-0.0112
4,CACCCTAG,-0.00767
5,CAATGGGG,-0.0549
6,ATTCGGGG,0.132
7,AACGCTCG,-0.182
8,AGTTGTAA,0.0178
9,ATTACGGG,0.264
10,ACCCTTTG,-0.188
11,AGTGACCG,-0.192
12,ACTCCCAA,-0.124
13,AGCTCGGC,-0.153
14,AACATGTA,-0.0556
15,ACAACGAT,0.168
16,AGATTACG,0.484
17,AGCCGTGG,-0.243
18,ATTACCCA,0.234
19,AAGAGAGA,-0.239
20,ATCCATGA,0.232
21,ACCTCATA,-0.025
22,ACATCAAA,-0.0694
23,ACAATCAT,0.221
24,ACAGAGCG,-0.069
25,AAAACTAC,0.0385

row,Sequence,binding signal [E-score]
1,AGAGAGCT,-0.191
2,AAAAGCGC,0.142
3,ATTTGAGG,0.0896
4,AGGAAGTA,-0.00318
5,AAAAGTAT,0.0474
6,ATGTACTA,-0.018
7,AGCTCTCG,-0.171
8,AAACTCTT,0.0141
9,AGTGTGCA,0.015
10,CAACTCGC,-0.125
11,AATATTAA,0.269
12,ATGCTGGA,0.00755
13,ATTATCCA,0.182
14,ATGCACGC,-0.127
15,AGATAGAA,0.00709
16,AACTTACA,-0.0234
17,ACTTTCAA,-0.0734
18,CACACGTG,-0.229
19,ATCTCTGC,0.311
20,ATAACGGG,-0.0173
21,ACGAAGGC,-0.199
22,ACGATTCT,0.362
23,AGGCGATC,0.317
24,AGGAGGAG,-0.228
25,AACACTCG,-0.0786

row,Sequence,binding signal [E-score]
1,CACTTGAA,-0.0798
2,AATCTTTA,0.352
3,ACGCTGGC,0.0255
4,ACGCAATC,0.48
5,ATCAATAA,0.0962
6,ACGGCCCG,-0.266
7,ATGGATAG,0.101
8,ACCTTGAA,-0.0681
9,ATGACCGG,-0.00945
10,AACAGCAA,0.00563
11,ACATCTAT,0.0249
12,ATGCAGCA,-0.212
13,CACTCGTC,-0.21
14,CACTCTAC,-0.049
15,ACTGAAGT,-0.186
16,ATCTCGTC,0.319
17,ATACCAAT,0.111
18,ACCAACCG,-0.107
19,AAGCCCTG,-0.28
20,AATACTGT,0.0835
21,AGGTCAAA,0.0176
22,AGGGTTCA,-0.199
23,ATAAACCA,0.0151
24,ATAATGCC,0.0577
25,ACCGGTAA,0.0911

row,Sequence,binding signal [E-score]
1,CAAAAGCG,-0.0616
2,AATTGCAC,0.123
3,AATAGTGG,0.0493
4,CAAAGCAG,-0.00643
5,AAATCCAG,0.413
6,AAGTCGAA,0.00519
7,ACGAATTA,0.0986
8,AATCATAG,0.246
9,ATTTGGCC,0.00278
10,CAGAGTTC,-0.0546
11,ACCGCCGG,-0.14
12,ACCGGGAA,-0.162
13,CAATACCA,0.0755
14,AGAGATCT,0.411
15,ATGCAGGA,0.0934
16,AGGGGCGC,-0.203
17,ACCTCCCT,-0.255
18,ACCTCCCA,-0.202
19,CACCGTGA,-0.09
20,ACTTAGAC,-0.0535
21,AACATAGG,0.00817
22,ATTGGTGC,-0.0544
